# Out of some 390,000 compounds screened, about 17,000 (4.4%) were called active. This list was built around the results that the source calls inconclusive (neither active nor inactive); the mix of calls is not that of the screen. Calls come from the whole dose curve; as a rule, active = well fitted inhibition curve with a large enough effect; inconclusive = small, poorly fitted or top-dose-only effect; inactive = no such curve, though single readings can be large or run the other way. Potencies of inconclusive entries are doubtful fits and often do not repeat.
# Target: Lysine-specific demethylase 4A (Homo sapiens) (UniProt O75164)
# Experiment: qHTS Assay for Inhibitors of JMJD2A-Tudor Domain; note: nearly all actives have a fitted effect of over 50% in size
# Details: AlphaScreen JMJD2A-Tudor / H3K4me3 peptide binding; activity change, negative = inhibition: at 114 µM (top of the series)
# % is set by controls: 0 for no effect and ±100 for the full control effect; potency is the fitted concentration of half-maximal effect; tags give direction and shape of the fitted curve.
# Chain of UniProt O75164 (O75164 whole entry, looked up, the tested form may be a part): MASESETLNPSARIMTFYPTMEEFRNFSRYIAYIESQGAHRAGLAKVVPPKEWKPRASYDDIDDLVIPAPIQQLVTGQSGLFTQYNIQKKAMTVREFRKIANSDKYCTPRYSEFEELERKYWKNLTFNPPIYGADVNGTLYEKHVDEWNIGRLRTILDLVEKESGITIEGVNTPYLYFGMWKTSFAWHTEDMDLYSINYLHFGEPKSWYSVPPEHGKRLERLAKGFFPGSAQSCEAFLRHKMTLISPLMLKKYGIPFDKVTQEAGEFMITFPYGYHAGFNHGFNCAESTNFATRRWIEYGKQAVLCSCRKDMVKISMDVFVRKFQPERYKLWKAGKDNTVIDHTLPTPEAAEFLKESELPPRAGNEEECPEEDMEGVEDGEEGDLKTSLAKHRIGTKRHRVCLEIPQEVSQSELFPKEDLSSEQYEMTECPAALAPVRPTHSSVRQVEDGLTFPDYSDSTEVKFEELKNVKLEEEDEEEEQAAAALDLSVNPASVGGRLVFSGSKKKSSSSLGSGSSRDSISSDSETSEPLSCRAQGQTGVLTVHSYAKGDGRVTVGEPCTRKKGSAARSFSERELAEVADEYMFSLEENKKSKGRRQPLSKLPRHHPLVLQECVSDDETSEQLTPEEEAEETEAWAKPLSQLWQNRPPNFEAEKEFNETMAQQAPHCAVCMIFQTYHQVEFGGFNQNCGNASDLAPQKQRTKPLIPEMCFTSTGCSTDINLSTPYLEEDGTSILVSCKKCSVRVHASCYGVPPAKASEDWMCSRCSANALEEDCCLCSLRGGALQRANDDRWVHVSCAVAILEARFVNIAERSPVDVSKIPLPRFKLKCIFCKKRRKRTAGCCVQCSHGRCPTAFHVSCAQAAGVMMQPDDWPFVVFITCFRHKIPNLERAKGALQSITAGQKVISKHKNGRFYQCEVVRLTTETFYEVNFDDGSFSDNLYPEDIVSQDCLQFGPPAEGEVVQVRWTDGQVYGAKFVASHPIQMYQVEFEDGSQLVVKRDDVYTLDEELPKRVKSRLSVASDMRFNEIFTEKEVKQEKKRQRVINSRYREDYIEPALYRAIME
SMILES,Potency,"activity change, negative = inhibition"
COc1cc(CN2CCN(C(=O)Cc3ccccc3)CC2)cc(OC)c1OC,active: 7.08 µM,–
CSc1nc(N)c(N=Nc2ccc([As](=O)(O)O)cc2)c(=O)[nH]1,"inconclusive: 20 µM [inhibitor, single point]",–
CCCCCn1c(NC(=O)c2ccco2)c(C(=O)OCC)c2nc3ccccc3nc21,"inconclusive: 89.1 µM [inhibitor, single point]",–
Cc1c(C)c2ccc(OCC(=O)N3CCC[C@@H]3C(=O)O)c(C)c2oc1=O,"inconclusive: 2.51 µM [inhibitor, partial curve, poor fit]",–
COC(=O)C1=C(c2cccc(OCc3ccccc3)c2)C[C@@H]2CC[C@H]1N2C(=O)NCc1ccc(N(C)C)cc1,active: 20 µM,–
O=[N+]([O-])c1cccc(CN2CCN(Cc3ccc(Cl)cc3)CC2)c1,active: 0.794 µM,–
COc1ccccc1CCNCc1ccc(OC)c(OC)c1OC,active: 20 µM,–
Cc1ccc(-c2cn3c(=S)[nH]nc3s2)cc1,active: 0.708 µM,–
Cc1ccccc1-c1nc2ccccc2c(=O)n1C,"inconclusive: 31.6 µM [inhibitor, partial curve]",–
Cc1cccc(OCC(=O)N2CCN(Cc3ccncc3)CC2)c1,active: 1.26 µM,–
c1ccc2c(CN3CCCCCCC3)c[nH]c2c1,active: 28.2 µM,–
CCOC(=O)c1c(C)n(Cc2ccccc2)c2ccc(OCC(O)CNC(C)(C)C)cc12 (stereo not given),"inconclusive: 2.82 µM [inhibitor, partial curve]",–
Clc1ccc(COC(Cn2ccnc2)c2ccc(Cl)cc2Cl)cc1 (stereo not given),"inconclusive: 14.1 µM [inhibitor, full curve]",–
CCOC(=O)c1ccc(N=C(c2ccccc2)c2c(O)n(C)c(=O)n(C)c2=O)cc1,–,inactive: 11.4%
CC(C)C[C@H]1C(=O)N2CCC[C@H]2[C@]2(O)O[C@](NC(=O)C3C=C4c5cccc6[nH]c(Br)c(c56)C[C@H]4N(C)C3)(C(C)C)C(=O)N12 (stereo not given in full),"inconclusive: 39.8 µM [inhibitor, partial curve]",–
COc1ccc(-c2cc(=Nc3cccc(C(=O)O)c3)c3cc(C)ccc3o2)cc1,–,inconclusive: -39.5% [inhibitor]
Cn1c(O)c(/C=N/NC(=O)c2ccncc2)c(=O)n(C)c1=S,"inconclusive: 89.1 µM [inhibitor, partial curve]",–
Cc1cccc(N2C(=O)NC(=O)/C(=C/c3cc4c(cc3[N+](=O)[O-])OCO4)C2=O)c1,active: 79.4 µM,–
Cc1noc(NS(=O)(=O)c2ccc(NC(=O)CCCOc3ccc(Cl)cc3Cl)cc2)c1C,"inconclusive: 79.4 µM [inhibitor, partial curve]",–
COc1cc2c(cc1OC)C1C(=O)c3ccc4c(c3OC1CO2)CC(C(C)C)O4 (stereo not given),active: 44.7 µM,–
C=CCn1cc(C=C2C(=O)NC(=O)NC2=O)c2ccccc21,"inconclusive: 25.1 µM [inhibitor, full curve, poor fit]",–
CC12CCC3c4ccc(OP(=O)(N5CC5)N5CC5)cc4CCC3C1CCC2=O (stereo not given),"inconclusive: 44.7 µM [inhibitor, partial curve]",–
CCOc1ccc(C(NC(=O)c2cc(OC)c(OC)c(OC)c2)c2cc(Cl)c3cccnc3c2O)cc1 (stereo not given),"inconclusive: 11.2 µM [inhibitor, full curve, poor fit]",–

SMILES,Potency,"activity change, negative = inhibition"
COc1ccc(C2=NCC(=O)N(CC(=O)NCc3ccco3)c3sc4c(c32)CCCC4)cc1,"inconclusive: 50.1 µM [inhibitor, partial curve]",–
CCOC(=O)c1c(C)n(CCN2CCN(C)CC2)c2ccc(OC)cc12,active: 17.8 µM,–
CN1CCc2nc(SCc3ccccc3Br)c(C#N)cc2C1,"inconclusive: 63.1 µM [inhibitor, partial curve, poor fit]",–
NC1(C(=O)O)CCCc2ccc(N(CCCl)CCCl)cc21 (stereo not given),"inconclusive: 7.08 µM [inhibitor, full curve, poor fit]",–
Cc1ccc(NC(=O)COC(=O)/C=C/c2ccco2)cc1S(=O)(=O)N(C)C,"inconclusive: 44.7 µM [inhibitor, partial curve]",–
Nc1ccc(C2(c3ccc(N)cc3)CCCCC2)cc1,"inconclusive: 89.1 µM [inhibitor, single point]",–
CC1=NN(c2ccccc2)C(=O)C1/C=C1/C(=O)NC(=O)N(c2cc(C)cc(C)c2)C1=O (stereo not given),"inconclusive: 89.1 µM [inhibitor, single point]",–
c1cnc2c(c1)ccc1ncccc12,–,inactive: -2.73%
Cc1ccc(CN2CCSc3ccc(C(=O)N4CCC5(CC4)OCCO5)cc32)cc1,"inconclusive: 63.1 µM [inhibitor, partial curve, poor fit]",–
Cc1cc(C)c(C(=O)CN2CCOCC2)c(C)c1,"inconclusive: 89.1 µM [inhibitor, single point]",–
CC(Cc1ccccc1)NC(=O)CN1CCCC1=O (stereo not given),–,inactive: 2.08%
COc1ccc(CCn2c(O)c(C=Nc3ccc(NC(C)=O)cc3)c(=O)[nH]c2=O)cc1OC,–,inactive: -10.3%
Cc1cc(-c2cc(C)c(N)c(C)c2)cc(C)c1N,active: 50.1 µM,–
COC(=O)C1=C(c2ccc(-c3ccccc3)c(F)c2)C[C@@H]2CC[C@H]1N2C(=O)NCc1ccco1,"inconclusive: 28.2 µM [inhibitor, full curve, poor fit]",–
CCOc1ccccc1N=C1SCCCN1C,active: 79.4 µM,–
c1ccc(-c2[nH]c(-c3ccccc3)[n+](CC3CO3)c2-c2ccccc2)cc1 (stereo not given),"inconclusive: 39.8 µM [inhibitor, single point]",–
CCCCCCC(C)(C)c1ccc([C@@H]2C[C@H](O)CC[C@H]2CCCO)c(O)c1,"inconclusive: 56.2 µM [inhibitor, partial curve]",–
Nc1cncc(C(=O)O)c1,inactive,–
Cc1cc(N=Nc2ccccc2C)ccc1N,active: 39.8 µM,–
NC(=O)c1c(NC(=O)c2ccc(S(=O)(=O)N(CCCl)CCCl)cc2)sc2c1CCCCC2,–,inactive: -12.3%
Cc1ccc(-n2c(O)c(C=NCc3ccccn3)c(=O)[nH]c2=S)cc1,–,inactive: 2.68%
COc1cc(C(=O)N/N=C/C23CC[C@@H](O)CC2(O)CC[C@@H]2[C@@H]3CCC3(C)C(C4=CC(=O)OC4)CCC23O)ccc1O (stereo not given in full),"inconclusive: 15.8 µM [inhibitor, partial curve]",–

# — PubChem BioAssay AID504339 (National Center for Advancing Translational Sciences (NCATS), 2011)
